Measured values: the supplement of paper PMC9588766
Counter-ions that a name gives are not always drawn. Whole data set: some 1,900 compounds, median “cell viability of compound + 1 nM pemigatinib relative to pemigatinib-only (DMSO) wells” near 0.95, cut for the lowest 2% near 0.22. Some of the results follow.

Each compound was assayed on PDC-DUC18828 (assay: cell viability of compound + 1 nM pemigatinib relative to pemigatinib-only (DMSO) wells (fraction); PDC-DUC18828 is a patient-derived cholangiocarcinoma cell line; higher = less growth inhibition). Conditions: first compound 1 µM; pemigatinib concentration 1 nM; 72 h.
Protocol: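 Selleck Bioactive library screen in the patient-derived FGFR2 fusion-positive ICC cell line PDC-DUC18828 (500 cells/well). Each compound was tested at 1 uM with 1 nM pemigatinib, in triplicate, for 72 h. Viability was read by CellTiter-Glo and normalised to plate DMSO controls. Value is the paper's averaged normalised viability.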

Structure (SMILES) | cell viability
CN(C)Cc1cccc(N/C(=C2\C(=O)Nc3cc(C(N)=O)ccc32)c2ccccc2)c1 + CCN1C(=O)N(c2c(F)c(OC)cc(OC)c2F)Cc2cnc3[nH]c(CN4CCOCC4)cc3c21 [pemigatinib] | 1
CCN1CC(CCN2CCOCC2)C(c2ccccc2)(c2ccccc2)C1=O (configuration not stated) [Doxapram HCl] + CCN1C(=O)N(c2c(F)c(OC)cc(OC)c2F)Cc2cnc3[nH]c(CN4CCOCC4)cc3c21 [pemigatinib] | 0.985
CCC(=O)O[C@]1(C(=O)CCl)[C@@H](C)C[C@H]2[C@@H]3C[C@H](F)C4=CC(=O)C=C[C@]4(C)[C@@]3(F)[C@@H](O)C[C@@]21C [Halobetasol Propionate] + CCN1C(=O)N(c2c(F)c(OC)cc(OC)c2F)Cc2cnc3[nH]c(CN4CCOCC4)cc3c21 [pemigatinib] | 0.784
C[C@@H](CN1CC(=O)NC(=O)C1)N1CC(=O)NC(=O)C1 [Dexrazoxane HCl (ICRF-187, ADR-529)] + CCN1C(=O)N(c2c(F)c(OC)cc(OC)c2F)Cc2cnc3[nH]c(CN4CCOCC4)cc3c21 [pemigatinib] | 1.01
Cc1nc2n(c(=O)c1CCN1CCC(c3noc4cc(F)ccc34)CC1)CCCC2 [Risperidone] + CCN1C(=O)N(c2c(F)c(OC)cc(OC)c2F)Cc2cnc3[nH]c(CN4CCOCC4)cc3c21 [pemigatinib] | 1.07
CNCCC(Oc1ccc(C(F)(F)F)cc1)c1ccccc1 (configuration not stated) [Fluoxetine HCl] + CCN1C(=O)N(c2c(F)c(OC)cc(OC)c2F)Cc2cnc3[nH]c(CN4CCOCC4)cc3c21 [pemigatinib] | 0.981
Cn1nccc1Nc1nccc(-c2ccn([C@H](CO)c3ccc(Cl)c(F)c3)c(=O)c2)n1 + CCN1C(=O)N(c2c(F)c(OC)cc(OC)c2F)Cc2cnc3[nH]c(CN4CCOCC4)cc3c21 [pemigatinib] | 0.886
CC(=O)OCC(=O)[C@@]12N=C(C)O[C@@H]1C[C@H]1[C@@H]3CCC4=CC(=O)C=C[C@]4(C)[C@H]3[C@@H](O)C[C@@]12C [Deflazacort] + CCN1C(=O)N(c2c(F)c(OC)cc(OC)c2F)Cc2cnc3[nH]c(CN4CCOCC4)cc3c21 [pemigatinib] | 0.896
OCc1cc(C(O)CNCCCCCCOCCCCc2ccccc2)ccc1O (configuration not stated) [Salmeterol Xinafoate] + CCN1C(=O)N(c2c(F)c(OC)cc(OC)c2F)Cc2cnc3[nH]c(CN4CCOCC4)cc3c21 [pemigatinib] | 0.943
Nc1ncnc2c1c(-c1cnc3[nH]ccc3c1)nn2C1CCCC1 + CCN1C(=O)N(c2c(F)c(OC)cc(OC)c2F)Cc2cnc3[nH]c(CN4CCOCC4)cc3c21 [pemigatinib] | 0.331
Cc1cc(C(O)=C2C(=O)C(=O)N(CCCN3CCOCC3)C2c2ccncc2)ccc1OCc1ccccc1 (configuration not stated) + CCN1C(=O)N(c2c(F)c(OC)cc(OC)c2F)Cc2cnc3[nH]c(CN4CCOCC4)cc3c21 [pemigatinib] | 1
COc1cc(Nc2nc3ccccc3nc2NS(=O)(=O)c2ccc(NC(=O)c3ccc(C)c(OC)c3)cc2)cc(OC)c1 + CCN1C(=O)N(c2c(F)c(OC)cc(OC)c2F)Cc2cnc3[nH]c(CN4CCOCC4)cc3c21 [pemigatinib] | 1.01
CCC1=C(C)CN(C(=O)NCCc2ccc(S(=O)(=O)NC(=O)N[C@H]3CC[C@H](C)CC3)cc2)C1=O [Glimepiride] + CCN1C(=O)N(c2c(F)c(OC)cc(OC)c2F)Cc2cnc3[nH]c(CN4CCOCC4)cc3c21 [pemigatinib] | 1.03
CCNC(=O)C#Cc1ccc2c(C(=Nc3ccc(CN(C)C)cc3)c3ccccc3)c(O)[nH]c2c1 + CCN1C(=O)N(c2c(F)c(OC)cc(OC)c2F)Cc2cnc3[nH]c(CN4CCOCC4)cc3c21 [pemigatinib] | 0.38
CCCCOc1cc(C(=O)NCCN(CC)CC)c2ccccc2n1 [Dibucaine HCl] + CCN1C(=O)N(c2c(F)c(OC)cc(OC)c2F)Cc2cnc3[nH]c(CN4CCOCC4)cc3c21 [pemigatinib] | 0.925
CCOC(=O)c1ccc(NC(=O)O[C@H]2[C@H](OC(=O)Nc3ccc4c(c3)OCO4)[C@@H](OC(=O)Nc3ccc4c(c3)OCO4)[C@@H](OC)O[C@@H]2CO)cc1 + CCN1C(=O)N(c2c(F)c(OC)cc(OC)c2F)Cc2cnc3[nH]c(CN4CCOCC4)cc3c21 [pemigatinib] | 0.916
O=C1CCc2cc(OCCCCc3nnnn3C3CCCCC3)ccc2N1 [Cilostazol] + CCN1C(=O)N(c2c(F)c(OC)cc(OC)c2F)Cc2cnc3[nH]c(CN4CCOCC4)cc3c21 [pemigatinib] | 1.04
N#C[C@@H]1C[C@@H]2C[C@@H]2N1C(=O)[C@@H](N)C12CC3CC(CC(O)(C3)C1)C2 [Saxagliptin] + CCN1C(=O)N(c2c(F)c(OC)cc(OC)c2F)Cc2cnc3[nH]c(CN4CCOCC4)cc3c21 [pemigatinib] | 1.02
CCS(=O)(=O)CCn1c([N+](=O)[O-])cnc1C [Tinidazole] + CCN1C(=O)N(c2c(F)c(OC)cc(OC)c2F)Cc2cnc3[nH]c(CN4CCOCC4)cc3c21 [pemigatinib] | 0.945

Structure (SMILES) | cell viability
COC(=O)[C@@H]1[C@H]2C[C@H]3c4[nH]c5ccccc5c4CCN3C[C@@H]2CC[C@@H]1O [Yohimbine HCl] + CCN1C(=O)N(c2c(F)c(OC)cc(OC)c2F)Cc2cnc3[nH]c(CN4CCOCC4)cc3c21 [pemigatinib] | 0.891
Oc1c2ccccc2c2c3c(cccc13)N=N2 + CCN1C(=O)N(c2c(F)c(OC)cc(OC)c2F)Cc2cnc3[nH]c(CN4CCOCC4)cc3c21 [pemigatinib] | 0.963
CCC1C/C(=C\c2cccnc2)C(=O)/C(=C/c2cccnc2)C1 (configuration not stated) + CCN1C(=O)N(c2c(F)c(OC)cc(OC)c2F)Cc2cnc3[nH]c(CN4CCOCC4)cc3c21 [pemigatinib] | 0.65
O=C(/C=C\n1cnc(-c2cc(C(F)(F)F)cc(C(F)(F)F)c2)n1)NNc1cnccn1 + CCN1C(=O)N(c2c(F)c(OC)cc(OC)c2F)Cc2cnc3[nH]c(CN4CCOCC4)cc3c21 [pemigatinib] | 0.536
CN(C)Cc1ccc(-c2nc3cccc4c3n2CCNC4=O)cc1 + CCN1C(=O)N(c2c(F)c(OC)cc(OC)c2F)Cc2cnc3[nH]c(CN4CCOCC4)cc3c21 [pemigatinib] | 1.06
Cc1[nH]c(/C=C2\C(=O)Nc3ccc(S(=O)(=O)N(C)c4cccc(Cl)c4)cc32)c(C)c1C(=O)N1CCN(C)CC1 + CCN1C(=O)N(c2c(F)c(OC)cc(OC)c2F)Cc2cnc3[nH]c(CN4CCOCC4)cc3c21 [pemigatinib] | 0.919
CC(C)C[C@H](NC(=O)[C@H]1O[C@@H]1C(=O)O)C(=O)NCCCCN=C(N)N + CCN1C(=O)N(c2c(F)c(OC)cc(OC)c2F)Cc2cnc3[nH]c(CN4CCOCC4)cc3c21 [pemigatinib] | 0.994
Cc1nc(NC(=O)N2CCC[C@H]2C(N)=O)sc1-c1ccnc(C(C)(C)C(F)(F)F)c1 + CCN1C(=O)N(c2c(F)c(OC)cc(OC)c2F)Cc2cnc3[nH]c(CN4CCOCC4)cc3c21 [pemigatinib] | 0.802
CC(C)NCC(O)COc1cccc2ccccc12 (configuration not stated) [Propranolol HCl] + CCN1C(=O)N(c2c(F)c(OC)cc(OC)c2F)Cc2cnc3[nH]c(CN4CCOCC4)cc3c21 [pemigatinib] | 0.906
CC(N)C12CC3CC(CC(C3)C1)C2 (configuration not stated) [Rimantadine] + CCN1C(=O)N(c2c(F)c(OC)cc(OC)c2F)Cc2cnc3[nH]c(CN4CCOCC4)cc3c21 [pemigatinib] | 1
CCOC(=O)c1c(C)n(C)c2ccc(O)cc12 [Mecarbinate] + CCN1C(=O)N(c2c(F)c(OC)cc(OC)c2F)Cc2cnc3[nH]c(CN4CCOCC4)cc3c21 [pemigatinib] | 1.06
COc1ccc(C[C@@H]2c3cc(OC)c(OC)cc3CC[N@+]2(C)CCC(=O)OCCCCCOC(=O)CC[N@@+]2(C)CCc3cc(OC)c(OC)cc3[C@H]2Cc2ccc(OC)c(OC)c2)cc1OC [Cisatracurium Besylate] + CCN1C(=O)N(c2c(F)c(OC)cc(OC)c2F)Cc2cnc3[nH]c(CN4CCOCC4)cc3c21 [pemigatinib] | 1
Fc1cc(-c2cccc3ncc(-c4cnn(C5CCNCC5)c4)nc23)cc(F)c1CN1CCOCC1 + CCN1C(=O)N(c2c(F)c(OC)cc(OC)c2F)Cc2cnc3[nH]c(CN4CCOCC4)cc3c21 [pemigatinib] | 0.992
CN(CCOc1ccc(CC2SC(=O)NC2=O)cc1)c1ccccn1 (configuration not stated) [Rosiglitazone maleate] + CCN1C(=O)N(c2c(F)c(OC)cc(OC)c2F)Cc2cnc3[nH]c(CN4CCOCC4)cc3c21 [pemigatinib] | 0.976
CN(CCOc1ccc(CC2SC(=O)NC2=O)cc1)c1ccccn1 (configuration not stated) [Rosiglitazone] + CCN1C(=O)N(c2c(F)c(OC)cc(OC)c2F)Cc2cnc3[nH]c(CN4CCOCC4)cc3c21 [pemigatinib] | 0.921
CN(CCOc1ccc(CC2SC(=O)NC2=O)cc1)c1ccccn1 (configuration not stated) [Rosiglitazone HCl] + CCN1C(=O)N(c2c(F)c(OC)cc(OC)c2F)Cc2cnc3[nH]c(CN4CCOCC4)cc3c21 [pemigatinib] | 1.05
NCc1c[nH]c(=S)n1[C@@H]1CCc2c(F)cc(F)cc2C1 [(R)-Nepicastat HCl] + CCN1C(=O)N(c2c(F)c(OC)cc(OC)c2F)Cc2cnc3[nH]c(CN4CCOCC4)cc3c21 [pemigatinib] | 0.905
Cc1ccc2c(Cl)cc(Cl)c(O)c2n1 [Chlorquinaldol] + CCN1C(=O)N(c2c(F)c(OC)cc(OC)c2F)Cc2cnc3[nH]c(CN4CCOCC4)cc3c21 [pemigatinib] | 0.96
